Among the data in PubChem BioAssay AID1745853 (National Center for Advancing Translational Sciences (NCATS), 2022) are activity change, negative = inhibition values, retold here.

Experiment in all cases: Primary Screen for Target Class Profiling of Small Molecule Inhibitors of Methyltransferases
Assay [1] addresses Glycine N-methyltransferase (Homo sapiens) (UniProt Q14749). To be noted: purified enzyme, MTase-Glo SAH luminescence; measured here: GNMT inhibition; at 40 µM; stronger effect = lower value. The method, boiled down: (§1)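 Each enzyme was assayed with SAM and its substrate. SAH formation detected by MTase-Glo luminescence; single-point 40 uM screen[…].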
Assay [2] deals with Guanidinoacetate N-methyltransferase (Homo sapiens) (UniProt Q14353). To be noted: purified enzyme, MTase-Glo SAH luminescence; measured here: GAMT inhibition; at 40 µM; stronger effect = lower value. The method, boiled down:
as §1

Assay [3] has as its target Histamine N-methyltransferase (Homo sapiens) (UniProt P50135). To be noted: purified enzyme, MTase-Glo SAH luminescence; measured here: HNMT inhibition; at 40 µM; stronger effect = lower value. The method, boiled down: as §1
The target of assay [4] is Nicotinamide N-methyltransferase (Homo sapiens) (UniProt P40261). To be noted: purified enzyme, MTase-Glo SAH luminescence; measured here: NNMT inhibition; at 40 µM; stronger effect = lower value. The method, boiled down: as §1
Assay [5] deals with Phenylethanolamine N-methyltransferase (Homo sapiens) (UniProt P11086). To be noted: purified enzyme, MTase-Glo SAH luminescence; measured here: PNMT inhibition; at 40 µM; stronger effect = lower value. The method, boiled down: as §1

This is one part of the list. The main result of the screen is listed elsewhere. These columns were measured beside it and carry no call.
% is scaled to controls: 0 for no effect and ±100 for the full control effect.

In the case of `CC(C)(C)NCC(O)c1cc(O)cc(O)c1` (stereo not given), the activity change, negative = inhibition in assay [1] is 1.53%; in assay [2] it was 12.2%; in assay [3], 14.3%; in assay [4], -3.13%; in assay [5], -0.913%.
In the case of `O=C(N[C@@H]1CN(Cc2ccccc2)C[C@H]1CO)c1cccnc1`, the activity change, negative = inhibition in assay [1] was -1.59%; in assay [2], -0.862%; in assay [3], -0.037%; in assay [4] it was 5.57%; in assay [5], 1.64%.
Taken in the same sequence, the figures for `CC[N+](CC)(CC)CCOc1cccc(OCC[N+](CC)(CC)CC)c1OCC[N+](CC)(CC)CC` were -22.2%, 1.64%, -13.6%, -6.15% and 7.22%.
On the same counts, the results for `CC1CCC(NC(=O)C2(C)Cn3c(ccc3-c3ccccc3)C(=O)N2CCc2ccccc2)CC1` (stereo not given) are 5.43%, 1.28%, 3.24%, 7.97% and 4.01%.
On the same counts, the results for `COc1ccc(-c2cc3n(n2)CC(C)(C(=O)NCc2ccccc2OC)N(Cc2ccc(C)cc2)C3=O)cc1` (stereo not given) are 5.8%, 0%, 7.72%, 1.6% and 0.473%.
Turning to `COc1cccc(NC(=O)CCc2nnc3n(Cc4ccc(Cl)cc4)c(=O)c4ccccc4n23)c1`, the activity change, negative = inhibition was 0.145% in assay [1]; 0% in assay [2]; -5.97% in assay [3]; 7.55% in assay [4]; -3.22% in assay [5].
Taken in the same sequence, the figures for `COCCOCc1nc(C2CCCCN2C(=O)NCc2ccc(F)cc2)no1` (stereo not given) were -5.13%, -8.06%, -2.8%, -7.75% and -0.094%.
With `COc1ccc(CN2C(=O)c3cc(-c4ccc(OC)cc4)nn3CC2(C)C(=O)NCc2ccccc2)cc1` (stereo not given), the activity change, negative = inhibition came out at 6.92% in assay [1]; 0% in assay [2]; 8.33% in assay [3]; 5.51% in assay [4]; 0.662% in assay [5].
Regarding `CC1(C(=O)NC2CCCCC2)Cn2nc(-c3ccco3)cc2C(=O)N1Cc1ccccc1Cl` (stereo not given), the activity change, negative = inhibition in assay [1] was 0.475%; in assay [2], 0%; in assay [3], 5.67%; in assay [4], -7.97%; in assay [5], -0.318%.
Taken in the same sequence, the figures for `C=C(c1ccc(C(=O)O)cc1)c1cc2c(cc1C)C(C)(C)CCC2(C)C` were -2.43%, -12.3%, -7.47%, -45.8% and -12%.
Taken in the same sequence, the figures for `COc1ccc(C2=NOC3(CCN(Cc4cccn4C)C3)C2)cc1` (stereo not given) were -5.43%, -6.43%, -14%, -8.38% and -33.7%.
On the same counts, the results for `NC(=O)[C@@H]1CC[C@H](c2ccc(OCc3ccccc3F)cc2)N1` are 1.67%, 6.42%, 3.82%, -9.22% and -0.31%.
Consider `O=C(NCc1ccc(F)cc1)N1CCC(OC2CCN(Cc3ccccc3)CC2)CC1`, for which the activity change, negative = inhibition is -2.86% in assay [1]; 0.717% in assay [2]; -21.9% in assay [3]; -6.58% in assay [4]; -8.31% in assay [5].
Taken in the same sequence, the figures for `CCCN(CCC)CCN1C(=O)c2cc3sccc3n2CC1(C)C(=O)NC1CCCCCC1` (stereo not given) were 6.47%, -4.87%, -6.33%, -0.12% and 4.5%.
Taken in the same sequence, the figures for `CN1C(=O)c2cc(C(=O)N3CCCCC3)nn2CC1(C)C(=O)NC1CCCCCC1` (stereo not given) were 4.36%, 0%, 9.77%, 10.8% and 4.64%.
On the same counts, the results for `CCN1C(=O)c2cc(C(=O)NCc3ccccc3Cl)nn2CC1(C)C(=O)NC1CCCC1` (stereo not given) are 2.59%, 3.64%, 3.87%, -0.947% and -1.82%.
For `Cc1ccccc1NC(=O)Cn1nc2n(C(C)C)c(=O)c3ccc(C(=O)NC4CCCC4)cc3n2c1=O`, the activity change, negative = inhibition in assay [1] was -0.081%; in assay [2], 5.89%; in assay [3] it was -1.14%; in assay [4] it was -2.38%; in assay [5] it was -8.56%.
Taken in the same sequence, the figures for `COc1ccc(-c2cc3n(n2)CC(C)(C(=O)NCc2ccccc2OC)N(c2ccc(Cl)cc2C)C3=O)cc1` (stereo not given) were 6.74%, 0%, 8.47%, -1.57% and 1.9%.
Taken in the same sequence, the figures for `Cc1ccc2n1CCN(C(=O)Nc1cccc(C(F)(F)F)c1)C2C(C)C` (stereo not given) were 11%, 0%, -3.83%, -6.75% and 0.149%.
Taken in the same sequence, the figures for `CCN1CCN(CCCNC(=O)c2cc3n(n2)CC(C)(C(=O)NC2CCCCC2)N(C)C3=O)CC1` (stereo not given) were -1.79%, 3.14%, -3.63%, -2.25% and 0.245%.
On to `CN(C)CCCCC(=O)Nc1ccc(NC(=S)NC(=O)c2ccc(C(C)(C)C)cc2)cc1`, for which the activity change, negative = inhibition in assay [1] was -2.39%; in assay [2] it was 10%; in assay [3] it was -23.6%; in assay [4], -25.2%; in assay [5], 3.84%.
Take `COc1cccc(CN2C(=O)c3cc4ccccc4n3CC2(C)C(=O)NCCC(C)C)c1OC` (stereo not given): the activity change, negative = inhibition in assay [1] is 2.31%; in assay [2], 0%; in assay [3], 4.84%; in assay [4], -1.84%; in assay [5] it was -0.8%.
On the same counts, the results for `Cc1ccc(N2C(=O)c3cc(-c4cccs4)nn3CC2(C)C(=O)NC2CCCCCC2)cc1` (stereo not given) are -2.95%, 0.395%, 1.13%, 2.11% and -2.96%.
On the same counts, the results for `Cc1ocnc1C(=O)N1CCC2(CCCN(CCCc3ccccc3)C2=O)C1` (stereo not given) are 1.73%, 3.31%, 0.854%, -1.81% and -0.291%.
Taken in the same sequence, the figures for `COC(=O)C(N)Cc1ccc(Cl)cc1` (stereo not given) were -10.1%, -2.03%, -2.35%, -12.1% and -1.83%.
As for `Cc1cc2c(cc1NS(=O)(=O)c1ccc3c(c1)n(C)c(=O)n3C)n(C)c(=O)n2C`, the activity change, negative = inhibition in assay [1] was -13.6%; in assay [2], 3.9%; in assay [3], -4%; in assay [4], -11.6%; in assay [5], -2.01%.
Taken in the same sequence, the figures for `CCn1c(=O)n(CC)c2cc(S(=O)(=O)N3CCN(c4ccc(C)cc4C)CC3)ccc21` were 3.63%, 0%, 1.22%, -3.23% and 4.02%.
For the compound `CCOCCCNC(=O)N1Cc2c(sc3c2CCCC3)-n2cccc2C1c1ccc(C)cc1` (stereo not given), the activity change, negative = inhibition in assay [1] is -4.91%; in assay [2], 0%; in assay [3], 10.3%; in assay [4], -0.146%; in assay [5] it was -0.573%.
Taken in the same sequence, the figures for `COC[C@H]1C[C@@H](NS(C)(=O)=O)[C@H](O)[C@@H]1O` were -5.03%, -5.7%, -10.7%, -7.53% and 0.799%.
